Screen size: about 39,000 compounds; about 220 (0.56%) showed activity. This is one part of the list.
test system: Escherichia coli K-12 BW25113; experiment: relative growth (OD600 normalised to plate interquartile mean) (fraction); higher = less growth inhibition, active = 0.2 or less; details: 50 µM; LB; incubation time: overnight (16-24 h)
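Further: static incubation at 37 °C against the wild-type strain, values averaged over two biological replicates.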

SMILES | relative growth
CC(C)NC(=O)Nc1ccc2c(c1)C(=O)N([C@@H](C)CO)C[C@H](C)[C@H](CN(C)C(=O)Nc1ccc3c(c1)OCO3)O2 | inactive: 0.979
C[C@@H]1CCCCO[C@@H](CN(C)C(=O)Nc2ccccc2)[C@@H](C)CN([C@@H](C)CO)C(=O)c2cc(NC(=O)Nc3ccc4c(c3)OCO4)ccc2O1 | inactive: 1.02
COc1cccc(-c2ccc3c(c2)O[C@@H](CN(C)Cc2cncnc2)[C@@H](C)CN([C@@H](C)CO)S3(=O)=O)c1 | inactive: 1.01
C[C@H](CO)N1C[C@H](C)[C@H](CN(C)C(=O)c2ccncc2)Oc2cc(C#CC3(O)CCCC3)ccc2S1(=O)=O | inactive: 0.999
O=S(=O)(NCC[C@H]1CC[C@H](NS(=O)(=O)c2ccccc2Cl)[C@H](CO)O1)c1ccc(Cl)cc1 | inactive: 0.999
CCC(=O)Nc1ccc2c(c1)OC[C@@H](C)N(C(=O)CN1CCOCC1)C[C@@H](C)[C@@H](OC)CN(C)C2=O | inactive: 1.03
C[C@@H]1CCCCO[C@H](CN(C)Cc2ccccc2)[C@@H](C)CN([C@H](C)CO)C(=O)c2cc(NC(=O)Nc3ccccc3)ccc2O1 | inactive: 1
C[C@H](CO)N1C[C@H](C)[C@@H](CN(C)Cc2ccc(-c3ccccc3)cc2)Oc2ccc(NC(=O)CCC(F)(F)F)cc2CC1=O | inactive: 0.969
NCc1nnc2n1CCCCC2 | inactive: 1.02
C[C@H]1CN([C@@H](C)CO)C(=O)c2cccc(NC(=O)Nc3ccc(C(F)(F)F)cc3)c2O[C@@H]1CN(C)C(=O)Nc1ccccc1 | inactive: 0.852
C[C@@H]1CN([C@@H](C)CO)C(=O)Cc2cc(NS(=O)(=O)c3ccc(F)cc3)ccc2O[C@H]1CN(C)Cc1ccc(Cl)c(Cl)c1 | inactive: 0.989
O.OCC(O)C(O)C(OC1OC(CO)C(O)C(O)C1O)C(O)CO (stereo not given) | inactive: 0.993
C[C@H]1CN([C@@H](C)CO)C(=O)Cc2cc(NS(C)(=O)=O)ccc2O[C@@H]1CN(C)C | inactive: 1.05
COc1ccc(S(=O)(=O)N(C)C[C@H]2OCCCC[C@@H](C)Oc3ccc(NC(=O)Nc4cccc5ccccc45)cc3C(=O)N([C@@H](C)CO)C[C@H]2C)cc1 | inactive: 1.02
C[C@@H]1CN([C@H](C)CO)C(=O)c2cccc(NC(=O)c3cnccn3)c2O[C@H]1CN(C)S(=O)(=O)c1ccc(Cl)cc1 | inactive: 0.987
CO[C@@H](CN(C)S(=O)(=O)c1cccc(Cl)c1)[C@@H](C)CN([C@H](C)CO)S(=O)(=O)c1ccc(Cl)cc1 | inactive: 1.05
CCCN(C)C[C@H]1OCCCC[C@H](C)Oc2ccc(NC(=O)c3ccccc3)cc2C(=O)N([C@@H](C)CO)C[C@H]1C | inactive: 1.01
C=CC[C@@H](CC(=O)N[C@H](CO)Cc1ccccc1)C(=O)NC[C@@H](OC(=O)[C@@H](CC=C)Cc1ccc(F)cc1)c1ccccc1 | inactive: 1.05
O=C(C[C@H]1C[C@H]2c3cc(NC(=O)NC4CCCC4)ccc3O[C@H]2[C@@H](CO)O1)NCc1ccc2c(c1)OCO2 | inactive: 0.979
CNC[C@@H]1OCCCC[C@H](C)Oc2ccc(NC(=O)Nc3cccc4ccccc34)cc2C(=O)N([C@H](C)CO)C[C@@H]1C | inactive: 0.986

SMILES | relative growth
COc1cccc(S(=O)(=O)N(C)C[C@H]2OCc3cn(nn3)CCCC(=O)N([C@@H](C)CO)C[C@H]2C)c1 | inactive: 1.01
C[C@H]1CN([C@@H](C)CO)C(=O)c2c(c3ccccc3n2C)-c2ccccc2CO[C@@H]1CN(C)Cc1ccc(C(=O)O)cc1 | inactive: 0.996
C=CCSCC(N)C(=O)O (stereo not given) | inactive: 1.03
C[C@@H]1CN([C@H](C)CO)C(=O)c2cc(NC(=O)Nc3cccc4ccccc34)ccc2O[C@H]1CN(C)CC1CCCCC1 | inactive: 0.989
CC(C)NC(=O)Nc1ccc2c(c1)C(=O)N([C@@H](C)CO)C[C@H](C)[C@@H](CN(C)C(=O)Nc1ccc(F)cc1)OCCCC[C@@H](C)O2 | inactive: 0.958
Cc1nc(C)n(C(=O)N2CCOCC2)n1 | inactive: 1.01
C=CC[C@H](CC(=O)NCCO)C(=O)N[C@@H](COC(=O)[C@@H](CC=C)CC(=O)OC(C)(C)C)Cc1c[nH]c2ccccc12 | inactive: 1.02
COc1ccc(NC(=O)Nc2ccc3c(c2)CC(=O)N([C@H](C)CO)C[C@H](C)[C@H](CN(C)CC2CCCCC2)O3)cc1 | inactive: 0.967
COc1ccc(NC(=O)N(C)C[C@H]2Oc3c(NC(=O)Nc4cccc5ccccc45)cccc3C(=O)N([C@H](C)CO)C[C@H]2C)cc1 | inactive: 1.05
Cc1cccc(/C=C2\CS/C(=C\c3cccc(C)c3)C2=O)c1 | inactive: 1.03
C[C@H](CO)N1C[C@H](C)[C@@H](CN(C)S(=O)(=O)c2ccc(F)cc2)Oc2ccc(NS(=O)(=O)c3cccs3)cc2CC1=O | inactive: 0.905
C[C@@H]1CN([C@@H](C)CO)C(=O)c2cc(NC(=O)c3ccncc3)ccc2O[C@@H](C)CCCCO[C@@H]1CN(C)S(=O)(=O)c1cn(C)cn1 | inactive: 0.981
NCC1CCN(Cc2ccccc2)CC1 | inactive: 1.02
CC(C)(C)NC(=O)[C@@H]1C[C@@H]2CCCC[C@@H]2CN1C[C@@H](O)[C@H](Cc1ccccc1)NC(=O)[C@H](CC(N)=O)NC(=O)c1ccc2ccccc2n1 | inactive: 1.02
CCOC(=O)c1c(NC(C)=O)no[n+]1[O-] | inactive: 0.997
C[C@@H]1CN([C@@H](C)CO)C(=O)c2cc(NC(=O)NC3CCCCC3)ccc2O[C@@H](C)CCCCO[C@H]1CN(C)C(=O)c1ccncc1 | inactive: 1
COc1ccccc1CNC(=O)C[C@H]1C[C@H]2c3cc(NC(=O)NC4CCCC4)ccc3O[C@H]2[C@@H](CO)O1 | inactive: 1.01
O=C(C[C@@H]1CC[C@H]2[C@@H](COC[C@H](O)CN2S(=O)(=O)c2ccccc2)O1)NCCN1CCCC1 | inactive: 1.01
CC(=O)Nc1ccc(O)cc1 | inactive: 1.11
COc1ccc(CNC(=O)C[C@@H]2CC[C@H]3[C@@H](COC[C@H](O)CN3S(=O)(=O)c3ccc(C)cc3)O2)cc1 | inactive: 0.999

— the supplement of paper PMC9446081
